# Assay results reported in ChEMBL document CHEMBL5606458, “ASAP - ZIKV NS2B-NS3 protease fluorescence single point” (2024).
# Among all 2,700 compounds or so, about 160 (5.9%) showed an effect of 50% or more. The list shows a part of the results.
# Target: Nonstructural protein 3 (Zika virus) (UniProt A0A024AXB9)
# [1] = PRVABC59, Concentration 15.0 uM, Number of replicates 1.0
# [2] = PRVABC59, Concentration 50.0 uM, Number of replicates 1.0
# [3] = PRVABC59, Concentration 10.0 uM, Number of replicates 1.0
# UniProt A0A024AXB9, sequence (A0A024AXB9 as listed by the source): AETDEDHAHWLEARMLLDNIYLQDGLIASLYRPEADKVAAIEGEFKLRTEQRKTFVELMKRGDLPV
structure (smiles),measurement,setting,value
COc1cccc(F)c1CNC(=O)c1cc(Cl)ccc1NS(=O)(=O)c1ccc(Oc2ccccc2Cl)cc1,inhibition,[1],30.2%
O=C(Nc1ccccc1Oc1ccccc1)c1cc(Cl)ccc1NS(=O)(=O)c1ccc(Oc2ccccc2Cl)cc1,inhibition,[1],54.2%
C[C@@H](C(=O)c1cccc(Cl)c1)N(C(=O)C1CCN(c2ccc(C=O)cc2)CC1)C(C)(C)C,inhibition,[2],18.1%
CN1CCN(c2ccc(CNC(=O)C3CCN(c4ccc(C=O)cc4)CC3)cc2)CC1,inhibition,[3],26.8%
CC(C)N(C[C@H](O)COc1cccc2ccccc12)C(=O)c1cc(Cl)ccc1NS(=O)(=O)c1ccc(Oc2ccccc2Cl)cc1,inhibition,[1],15.3%
O=Cc1ccc(N2CCC(C(=O)Nc3ccc([N+](=O)[O-])cc3)CC2)cc1,inhibition,[2],43%
CCc1noc(Cn2cc(C3CCNCC3)c(C)n2)n1,inhibition,"PRVABC59, Concentration 49.5 uM, Number of replicates 2.0, Standard deviation 1.3112558078378338 %",-2.04%
same,inhibition,"PRVABC59, Concentration 99.01 uM, Number of replicates 2.0, Standard deviation 0.11511703603695722 %",-1.43%
same,inhibition,"PRVABC59, Concentration 198.0 uM, Number of replicates 2.0, Standard deviation 0.57558549628615 %",0.495%
Cc1cc(CO)c2cccc(C[C@H](NC(=O)c3ccno3)C(=O)O)c2n1,inhibition,"PRVABC59, Concentration 49.95 uM, Number of replicates 2.0, Standard deviation 1.3649353828004607 %",-0.405%
same,inhibition,"PRVABC59, Concentration 99.9 uM, Number of replicates 2.0, Standard deviation 2.6244896515699807 %",4.79%
O=Cc1ccc(N2CCC(C(=O)N[C@H](CO)CC3CCCCC3)CC2)cc1,inhibition,[2],21.1%
CN(C)C1(CNC(=O)c2cc(Cl)ccc2NS(=O)(=O)c2ccc(Oc3ccccc3Cl)cc2)CCOCC1,inhibition,[1],-7.12%
Cc1nc(NC(=O)C2CCN(c3ccc(C=O)cc3)CC2)ccc1Br,inhibition,[2],20.8%
O=Cc1ccc(N2CCC(C(=O)Nc3ncc(Br)c(C(F)(F)F)n3)CC2)cc1,inhibition,[2],22.3%
O=C(N[C@H]1CC(=O)N(Cc2ccccc2)C1)c1cc(Cl)ccc1NS(=O)(=O)c1ccc(Oc2ccccc2Cl)cc1,inhibition,[1],22%
CC(=O)N[C@@H](CCCCN)C(=O)Nc1cccc2c(Cl)cc(C)nc12,inhibition,"PRVABC59, Concentration 49.95 uM, Number of replicates 2.0, Standard deviation 3.802363243631691 %",19.9%
same,inhibition,"PRVABC59, Concentration 99.9 uM, Number of replicates 2.0, Standard deviation 2.8723353743500515 %",37.2%
CC1(C)OB(c2ccc(Cl)cc2CNC2CCCCC2)OC1(C)C,inhibition,"PRVABC59, Concentration 500.0 uM, Number of replicates 2.0, Standard deviation 1.9574328288872134 %",5.92%
C[C@H](NC(=O)C1CCN(c2ccc(C=O)cc2)CC1)c1ccc([N+](=O)[O-])cc1,inhibition,[3],26%
O=Cc1ccc(N2CCC(C(=O)Nc3ccc(F)cc3I)CC2)cc1,inhibition,[2],22.9%
Cc1cc(CO)c2cccc(Cc3cccc(NC(=O)[C@@H]4C[C@@H](O)CN4)c3)c2n1,inhibition,"PRVABC59, Concentration 49.95 uM, Number of replicates 2.0, Standard deviation 2.4532169975140787 %",5.83%
same,inhibition,"PRVABC59, Concentration 99.9 uM, Number of replicates 2.0, Standard deviation 0.6616569684515518 %",18%
COc1ccc(CN(C(=O)C2CCN(c3ccc(C=O)cc3)CC2)C2CC2)cc1,inhibition,[2],21%
c1ccc2cc(CN3CCC[C@H](c4cc5ccccc5[nH]4)C3)ncc2c1,inhibition,"PRVABC59, Concentration 49.5 uM, Number of replicates 2.0, Standard deviation 1.706072311822425 %",3.03%
same,inhibition,"PRVABC59, Concentration 99.01 uM, Number of replicates 2.0, Standard deviation 0.7056744626867533 %",6.14%
same,inhibition,"PRVABC59, Concentration 198.0 uM, Number of replicates 2.0, Standard deviation 1.1747412382803808 %",11.4%
Cc1ccc2nc(NC(=O)C3CCN(c4ccc(C=O)cc4)CC3)sc2c1,inhibition,[2],24.4%
O=C(Nc1cc(Cl)cnc1Br)c1cc(Cl)ccc1NS(=O)(=O)c1ccc(Oc2ccccc2Cl)cc1,inhibition,[1],21.9%
O=C(c1cc(Cl)ccc1NS(=O)(=O)c1ccc(Oc2ccccc2Cl)cc1)N(CC1CC1)C1CCCCC1,inhibition,[1],19.7%
O=Cc1ccc(N2CCC(C(=O)NCc3ccccc3)CC2)cc1,inhibition,[3],26.5%
O=C(Nc1ccc(Oc2ccccc2Cl)cc1)c1cc(Cl)ccc1NS(=O)(=O)c1ccc(Oc2ccccc2Cl)cc1,inhibition,[1],19.7%
c1ccc2c([C@H]3CCN(Cc4ncco4)C3)c[nH]c2c1,inhibition,"PRVABC59, Concentration 49.5 uM, Number of replicates 2.0, Standard deviation 0.9858690560056252 %",0.77%
same,inhibition,"PRVABC59, Concentration 99.01 uM, Number of replicates 2.0, Standard deviation 4.236123435640349 %",0.726%
same,inhibition,"PRVABC59, Concentration 198.0 uM, Number of replicates 2.0, Standard deviation 2.0568340637577314 %",0.826%
O=Cc1ccc(N2CCC(C(=O)N(C3CCCCC3)C3CCCCC3)CC2)cc1,inhibition,[2],20.8%
Cc1cc(CO)c2cccc(NC(=O)C3CNC3)c2n1,inhibition,"PRVABC59, Concentration 99.9 uM, Number of replicates 2.0, Standard deviation 0.20878200053144555 %",-2.49%
CCn1nccc1CN1CCC(c2c[nH]c3cccnc23)CC1,inhibition,"PRVABC59, Concentration 49.5 uM, Number of replicates 2.0, Standard deviation 0.03120502087528381 %",-2.09%
same,inhibition,"PRVABC59, Concentration 99.01 uM, Number of replicates 2.0, Standard deviation 0.6194206000344206 %",-2.07%
same,inhibition,"PRVABC59, Concentration 198.0 uM, Number of replicates 2.0, Standard deviation 0.7582830862287184 %",-1.58%
Cc1cc(C)cc(OCCN(C)C(=O)C2CCN(c3ccc(C=O)cc3)CC2)c1,inhibition,[2],23.3%
Cn1cc(CNC(=O)c2ccccc2C2CCNCC2)cn1,inhibition,"PRVABC59, Concentration 49.5 uM, Number of replicates 2.0, Standard deviation 0.030577960063138728 %",1.58%
same,inhibition,"PRVABC59, Concentration 99.01 uM, Number of replicates 2.0, Standard deviation 1.7681266341715607 %",3.23%
same,inhibition,"PRVABC59, Concentration 198.0 uM, Number of replicates 2.0, Standard deviation 3.3204086361130085 %",7.24%
O=C(Nc1cnc(Br)c(Cl)n1)c1cc(Cl)ccc1NS(=O)(=O)c1ccc(Oc2ccccc2Cl)cc1,inhibition,[1],20.6%
O=C(O)c1cccc(NC(=O)c2cccc(Br)c2)c1,inhibition,"PRVABC59, Concentration 49.5 uM, Number of replicates 2.0, Standard deviation 2.5009940749301487 %",-0.982%
same,inhibition,"PRVABC59, Concentration 99.01 uM, Number of replicates 2.0, Standard deviation 3.0157213975013266 %",0.926%
same,inhibition,"PRVABC59, Concentration 198.0 uM, Number of replicates 2.0, Standard deviation 3.887437163113113 %",4.65%
COc1nc(Br)cnc1NC(=O)C1CCN(c2ccc(C=O)cc2)CC1,inhibition,[2],20.5%
Cc1cnccc1NC(=O)c1cc(C(C)C)n(C)n1,inhibition,"PRVABC59, Concentration 49.5 uM, Number of replicates 2.0, Standard deviation 2.5246041494100724 %",-0.352%
same,inhibition,"PRVABC59, Concentration 99.01 uM, Number of replicates 2.0, Standard deviation 5.092735709500862 %",2.2%
same,inhibition,"PRVABC59, Concentration 198.0 uM, Number of replicates 2.0, Standard deviation 3.1078747231271233 %",6.2%
CCCCCC(=O)N[C@@H](Cc1ccccc1)C(=O)NCc1cccc(CN)c1,inhibition,"PRVABC59, Concentration 49.5 uM, Number of replicates 2.0, Standard deviation 3.0011927993004544 %",-2.08%
same,inhibition,"PRVABC59, Concentration 99.01 uM, Number of replicates 2.0, Standard deviation 2.83307625931173 %",-0.451%
same,inhibition,"PRVABC59, Concentration 198.0 uM, Number of replicates 2.0, Standard deviation 3.088364441189248 %",0.933%
Cc1ccc([C@H](CCO)NC(=O)c2cc(Cl)ccc2NS(=O)(=O)c2ccc(Oc3ccccc3Cl)cc2)cc1,inhibition,[1],41.8%
CC(C)c1nc(CN(C)C(=O)c2cc(Cl)ccc2NS(=O)(=O)c2ccc(Oc3ccccc3Cl)cc2)cs1,inhibition,[1],27.9%
CN(CCCOc1ccc(Br)cc1)C(=O)c1cc(Cl)ccc1NS(=O)(=O)c1ccc(Oc2ccccc2Cl)cc1,inhibition,[1],12.1%
CC(=O)Nc1ccc(NC(=O)c2cc(Cl)ccc2NS(=O)(=O)c2ccc(Oc3ccccc3Cl)cc2)c(C(F)(F)F)c1,inhibition,[1],23.4%
O=Cc1ccc(N2CCC(C(=O)NCc3c(F)ccc(F)c3F)CC2)cc1,inhibition,[3],24.1%
O=C(c1cc(Cl)ccc1NS(=O)(=O)c1ccc(Oc2ccccc2Cl)cc1)N1CCS[C@H]1c1ccc([N+](=O)[O-])cc1,inhibition,[1],32.3%
O=C(c1cc(Cl)ccc1NS(=O)(=O)c1ccc(Oc2ccccc2Cl)cc1)N1CCCC[C@@H]1Cc1ccccc1,inhibition,[1],19%
O=C(c1cc(Cl)ccc1NS(=O)(=O)c1ccc(Oc2ccccc2Cl)cc1)N1CCN(C2CCCC2)CC1,inhibition,[1],19.7%
O=Cc1ccc(N2CCC(C(=O)Nc3ccc(F)cc3C(F)(F)F)CC2)cc1,inhibition,[2],23.6%
CCOc1ccc(N2CCN(C(=O)C3CCN(c4ccc(C=O)cc4)CC3)CC2)cc1,inhibition,[2],19.3%
CN(Cc1ccc(Cl)c(Cl)c1)C(=O)c1cc(Cl)ccc1NS(=O)(=O)c1ccc(Oc2ccccc2Cl)cc1,inhibition,[1],22.4%
O=Cc1ccc(N2CCC(C(=O)N3CCN(Cc4cc(F)ccc4F)CC3)CC2)cc1,inhibition,[2],23.9%
CCN(Cc1ccc(C(F)(F)F)cc1)C(=O)C1CCN(c2ccc(C=O)cc2)CC1,inhibition,[2],21.5%
O=C(NC(c1ccccc1)(c1ccccc1)c1ccccc1)c1cc(Cl)ccc1NS(=O)(=O)c1ccc(Oc2ccccc2Cl)cc1,inhibition,[1],27.1%
COc1ccccc1CN(C(=O)c1cc(Cl)ccc1NS(=O)(=O)c1ccc(Oc2ccccc2Cl)cc1)C1CC1,inhibition,[1],24.2%
O=Cc1ccc(N2CCC(C(=O)N3CCc4ccc([N+](=O)[O-])cc4C3)CC2)cc1,inhibition,[2],29%
O=C(N[C@@H](Cc1ccccc1)c1ccccc1)c1cc(Cl)ccc1NS(=O)(=O)c1ccc(Oc2ccccc2Cl)cc1,inhibition,[1],28.3%
CCC(CC)N1CCN(C(=O)c2cc(Cl)ccc2NS(=O)(=O)c2ccc(Oc3ccccc3Cl)cc2)CC1,inhibition,[1],19.6%
